Measured values reported in PMC11079024, “Identification of a family of species-selective complex I inhibitors as potential anthelmintics” (Nature Communications, 2024).
Like-named read-outs stand apart in the source and are kept apart here.

How the values were obtained:
[1] = test system: L1 wild-type C. elegans (N2); settings: caenorhabditis elegans
[2] = test system: L1 wild-type C. elegans (N2); assay: microbe, parasite or virus in culture; settings: Caenorhabditis elegans; for viability at 1 µM: read-out: C. elegans L1 development and viability (6-day growth), dose 1.000 µM; for viability at 15.6 µM: read-out: C. elegans L1 development and viability (6-day growth), dose 15.600 µM; for viability at 31.3 µM: read-out: C. elegans L1 development and viability (6-day growth), dose 31.300 µM; for viability at 62.5 µM: read-out: C. elegans L1 development and viability (6-day growth), dose 62.500 µM; for viability at 500 µM: read-out: C. elegans L1 development and viability (6-day growth), dose 500.000 µM
[3] = 144 h, read-out: C. elegans (Wild type) Development & Viability Assay LC50
[4] = 144 h, individual replicate (Rep)
[5] = read-out: C. elegans (Wild type) Development & Viability Assay LC50
[6] = read-out: C. elegans Wt viability log10 LC50 (converted)
[7] = read-out: C. elegans Wt viability LC50

COc1ccc(N=c2cc(-c3ccc(OC)cc3)oc3ccc(O)cc23)cc1 [NPD8034]
LC50 [1]: > 100 µM

Cc1cc(O)c(C(=O)/C=C/c2ccccc2)c(=O)o1 [NPD8366]
LC50 [1]: > 100 µM

COc1cc2c(cc1OC)C(C(C)c1ccc(CC(C)C)cc1)=NCC2 (stereo not drawn) [NPD10504]
LC50 [2, 3]: > 100 µM

O=C(Nc1ccc([N+](=O)[O-])cc1Cl)c1cc(Cl)ccc1O [Niclosamide]
LC50 [2, 3]: > 1000 µM | viability at 1 µM ([2]; 144 h, Mean of replicates): 95.1% | viability at 1 µM [2, 4]: 100% | viability at 2 µM ([2]; 144 h, read-out: C. elegans L1 development and viability (6-day growth), dose 2.000 µM, Mean of replicates): 95.1% | viability at 3.9 µM ([2]; 144 h, read-out: C. elegans L1 development and viability (6-day growth), dose 3.900 µM, Mean of replicates): 92.6% | viability at 15.6 µM ([2]; 144 h, Mean of replicates): 96.5% | viability at 15.6 µM [2, 4]: 100% | viability at 31.3 µM ([2]; 144 h, Mean of replicates): 96.7% | viability at 31.3 µM [2, 4]: 100% | viability at 62.5 µM ([2]; 144 h, Mean of replicates): 98.1% | viability at 62.5 µM [2, 4]: 100% | viability at 250 µM ([2]; 144 h, read-out: C. elegans L1 development and viability (6-day growth), dose 250.000 µM, Mean of replicates): 92.3% | viability at 500 µM ([2]; 144 h, Mean of replicates): 93.6% | viability at 500 µM [2, 4]: 100%

CCc1ccc(-c2cc(C(=O)Nc3nccs3)c3ccccc3n2)cc1 [STK418118]
LC50 [1]: 43.3 µM

CCc1ccc(CNc2nc3ccccc3n2C)cc1 [STK498539]
LC50 [2, 5]: 222 µM | LC50 [2, 6]: 222 µM

c1ccc(-c2noc(CCCCc3nc4ccccc4[nH]3)n2)cc1 [STK633241]
LC50 [2, 5]: > 1000 µM | LC50 [2, 7]: > 500 µM | LC50 [2, 6]: > 500 µM

C(=C\c1nc2ccccc2[nH]1)/c1ccccc1 [STK871091]
LC50 [2, 5]: 171 µM | LC50 [2, 6]: 171 µM

CCc1ccc(OC(C)c2nc3ccccc3[nH]2)cc1 (stereo not drawn) [STK914290]
LC50 [2, 5]: 256 µM | LC50 [2, 6]: 256 µM

CCn1c(C(C)c2ccc(CC(C)C)cc2)nc2ccccc21 (stereo not drawn) [STK951902]
LC50 [2, 5]: 594 µM | LC50 [2, 6]: 594 µM

CC(C)Cc1ccc(C(C)c2nc3ccccc3n2C(C)C)cc1 (stereo not drawn) [STK951903]
LC50 [2, 5]: > 1000 µM | LC50 [2, 7]: > 500 µM | LC50 [2, 6]: > 500 µM

C=CCn1c(C(C)c2ccc(CC(C)C)cc2)nc2ccccc21 (stereo not drawn) [STL020755]
LC50 [2, 5]: 325 µM | LC50 [2, 6]: 325 µM

c1ccc(CCCCCCCCCCc2nc3ccccc3[nH]2)cc1 [STL442376]
LC50 [2, 5]: 584 µM | LC50 [2, 6]: 583 µM

Cc1ccc2nc(C(C)c3ccc(CC(C)C)cc3)[nH]c2c1 (stereo not drawn) [STL482096]
LC50 [2, 5]: > 1000 µM | LC50 [2, 7]: > 500 µM | LC50 [2, 6]: > 500 µM

c1ccc2[nH]c(-c3cscn3)nc2c1 [Thiabendazole]
LC50 [2, 7]: 125 µM

COC(=O)Nc1nc2ccc(Sc3ccccc3)cc2[nH]1 [fenbendazole, reference compound]
LC50 [2, 7]: 37.5 µM

COC(=O)Nc1nc2ccc(C(=O)c3ccccc3)cc2[nH]1 [mebendazole, reference compound]
LC50 [2, 7]: 28.2 µM
